Data reported in paper PMC6919601, “Identification of Plasmodium dipeptidyl aminopeptidase allosteric inhibitors by high throughput screening” (PLoS ONE, 2019).
Hit rate of the full screen: of about 110,000 compounds, about 230 (0.21%) showed an effect of 50% or more. The list shows a part of the results.

What follows are molecules tested against DPAP1 (Plasmodium falciparum, UniProt Q8IIJ9) (assay: primary screen, percent inhibition; read by cleavage of a fluorogenic dipeptide substrate; higher = more effect of the substance).
DPAP1, sequence (Q8IIJ9 whole entry, looked up): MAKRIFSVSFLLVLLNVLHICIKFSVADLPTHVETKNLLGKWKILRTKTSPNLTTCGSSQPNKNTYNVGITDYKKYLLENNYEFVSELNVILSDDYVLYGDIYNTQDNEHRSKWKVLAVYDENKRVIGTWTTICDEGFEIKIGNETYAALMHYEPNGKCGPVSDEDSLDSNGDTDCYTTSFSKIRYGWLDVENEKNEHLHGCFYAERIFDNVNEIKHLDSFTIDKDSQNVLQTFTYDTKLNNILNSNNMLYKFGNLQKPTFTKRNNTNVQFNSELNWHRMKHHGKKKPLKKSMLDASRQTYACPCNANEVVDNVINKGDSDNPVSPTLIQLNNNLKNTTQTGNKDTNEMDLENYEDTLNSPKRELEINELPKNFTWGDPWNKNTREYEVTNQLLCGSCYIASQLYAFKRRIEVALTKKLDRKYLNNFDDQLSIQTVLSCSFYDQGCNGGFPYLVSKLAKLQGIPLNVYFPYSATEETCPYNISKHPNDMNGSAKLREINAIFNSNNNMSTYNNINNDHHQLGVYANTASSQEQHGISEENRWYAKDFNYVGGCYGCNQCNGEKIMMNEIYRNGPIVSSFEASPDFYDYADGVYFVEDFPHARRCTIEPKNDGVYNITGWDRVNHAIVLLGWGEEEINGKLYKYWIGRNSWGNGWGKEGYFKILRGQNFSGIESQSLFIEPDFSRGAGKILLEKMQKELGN
Design: species or system P. falciparum D10 trophozoite lysates; single well
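Further: 30 min substrate incubation versus DMSO and 10 µM JCP410 controls.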

Row | Compound | % Inhibition @ 10 uM
1 | Cc1cc(C)c2c(CC(=O)N(Cc3ccccc3)Cc3ccco3)coc2c1 | 4.18%
2 | Clc1ccc(CCNCc2ccncc2)c(Cl)c1 | -0.233%
3 | COCCNC(=O)C1Sc2nnc(-c3ccccc3)n2NC1c1ccc(Cl)cc1 (centres unmarked) | 3.35%
4 | CC1=C(C(=O)N(C)CCC#N)C2(CCCCC2)OC1=O | -0.354%
5 | Cc1ccc2ccccc2c1CSc1nc2c(c(=O)n(C)c(=O)n2C)n1C | 2.15%
6 | c1cnc(N2CCN(Cc3cccs3)CC2)nc1 | -4.5%
7 | CCN(CC)c1ccc(NS(=O)(=O)c2ccc(N)cc2)cc1 | 0.907%
8 | COc1ccc(C2=NC(C(F)(F)F)(C(F)(F)F)N=C3C=CC=C(C)N32)cc1 | -1.72%
9 | CCc1ccc(/C=c2\sc3nc(C4COc5ccccc5O4)nn3c2=O)cc1 (centres unmarked) | -5.2%
10 | CCn1c(C(=O)NCc2cccnc2)cc2sc(Cl)cc21 | -1.37%
11 | CC1=C(C(=O)N2CCCCC2)C(c2ccccc2F)C2=C(O)CCCC2=N1 (centres unmarked) | -5.05%
12 | COC(=O)C1=CN(C(C)C)C=C(C(=O)OC)C1c1ccc(C(C)C)cc1 | -1.48%
13 | COC(=O)c1c(NC(=O)c2ccc(OC)c(OC)c2)sc(C)c1C | -3.24%
14 | CC1CCc2c(C(=O)NCc3ccccc3)csc2C1 (centres unmarked) | 1.93%
15 | CCOc1cccc(-c2cc(C(=O)Nc3ccccn3)c3ccccc3n2)c1 | -3.23%
16 | CCOC(=O)c1cc(C)n(-c2ccc(C(=O)N3CCN(C(=O)OCC)CC3)cc2)c1C | -2.26%
17 | O=C(CSCc1ccccc1F)NCc1ccc(F)cc1 | -0.406%
18 | COc1cccc(NC(=O)c2c(-c3ccccc3Cl)noc2C)c1 | 5.31%
19 | N#CCc1ccc(NC(=O)COc2ccc3ccccc3c2)cc1 | 1.01%
20 | COc1ccc(CCNC(=O)CCCC(=O)O)cc1OC | 2.32%
21 | Cn1c(=O)c2nc(-c3ccc(OCc4ccccc4)cc3)[nH]c2n(C)c1=O | -1.28%
22 | COc1ccc(-n2nnc3c(=O)n(Cc4ccccc4Cl)cnc32)cc1 | 1.24%
23 | c1ccc(-c2nnc(CN3CCC4(CC3)OCCO4)o2)cc1 | 3.74%
24 | CC(NC(=O)Cn1cc(C#N)c2cc(Br)ccc21)c1ccccc1 (centres unmarked) | 0.776%
25 | COc1ccc(CNC(=O)Cn2ccc3cc(S(=O)(=O)N4CCC(C)CC4)ccc32)c(OC)c1 | 3.64%

Row | Compound | % Inhibition @ 10 uM
26 | Cc1sc2nc3c4ccccc4c(Cl)nn3c(=O)c2c1C | 0.24%
27 | Cc1ccc(/C=c2\sc3nc(-c4ccncc4)nn3c2=O)cc1 | 5.12%
28 | CCN1CCN(CCNc2cc(C)nc3c(-c4ccc(OC)c(OC)c4)c(C)nn23)CC1 | -1.89%
29 | CCN1CCN(CCNC(=O)c2ccc3c(c2)c(C)c(C)n3CC)CC1 | -5.09%
30 | CCC(C)NC(=O)C1=CCN(S(=O)(=O)c2ccc(F)cc2)CC1 (centres unmarked) | 3.59%
31 | Cc1cc(S(=O)(=O)N(Cc2ccccc2)Cc2ccccc2Cl)ccc1-n1cnnn1 | 58.7%
32 | COC(=O)c1cc(S(=O)(=O)N(CCCN2CCOCC2)Cc2ccco2)c[nH]1 | -4.33%
33 | CCOc1cc(/C=C2/SC(=O)N(CC(=O)N3CCOCC3)C2=O)ccc1OC | -5.82%
34 | CSc1nc(-c2ccc(C)cc2)nc(O)c1C#N | -2.8%
35 | CCOc1ccc(S(=O)(=O)N(CC(=O)Nc2cccc3ccccc23)c2ccccc2)cc1 | 4.08%
36 | COc1ccc(-c2nc3ccccn3c2NC(=O)CC(C)C)cc1 | 2.17%
37 | Cc1ccc(CN2CCC(CNC(=O)CCc3c(C)nc4c(c3C)c(=O)n(C)c(=O)n4C)C2)cc1 (centres unmarked) | 3.75%
38 | Cc1ccc(CNC(=O)c2sc3nc4n(c(=O)c3c2C)CCC4)cc1 | -5.69%
39 | Cc1ccc(S(=O)(=O)N2CCCC(C(=O)NCc3ccco3)C2)cc1 (centres unmarked) | 5.94%
40 | CCOc1ccc2[nH]c(CO)nc2c1 | -0.92%
41 | Cc1ccc(-n2ncc(C(=O)NCc3ccccn3)c2C2CCN(C(=O)OC(C)(C)C)CC2)cc1 | -5.97%
42 | NS(=O)(=O)c1ccc2ccc(O)cc2c1 | 0.847%
43 | CS(=O)(=O)N1CCC(C(=O)NCc2ccc3c(c2)OCO3)CC1 | 0.387%
44 | COc1cccc(OC)c1C(=O)Nc1ccc(Cl)cc1 | -3.29%
45 | COc1ccc(N2C(=O)c3ccccc3NC2c2ccccc2)cc1 (centres unmarked) | -3.26%
46 | CCCCNc1nc(SCc2cc(C(C)=O)ccc2OC)nc2ccccc12 | -0.456%
47 | O=C(NCc1ccccc1Cl)C1CCCN(S(=O)(=O)N2CCC3(CC2)OCCO3)C1 (centres unmarked) | -2.56%
48 | NCC(O)CNCCc1ccccc1 (centres unmarked) | 3.25%
49 | CCN(CC)CCNC(=O)c1cccc(OC)c1 | -0.0619%
50 | CC(=O)N1CCN(CC(c2ccccc2)c2ccccc2)CC1 | -3.15%
